# PubChem BioAssay AID488969 (Vanderbilt High Throughput Screening Facility, 2010)
# The full ranking holds about 110,000 compounds; the median of “z-score” is about -0.1, and the highest 2% start at about 2. The list shows a part of the results. The source made the active and inactive calls.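 Rule for the calls: active = z-score in the third read window above 3 or below -3; inactive = the rest.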
# Molecular target: Metabotropic glutamate receptor 8 (Rattus norvegicus) (UniProt P70579)
# Assay: rat mGluR8 modulators via GIRK flux, primary screen, cell-based, thallium flux, HTS (AID 488969)
# Settings: HEK293 rat mGluR8, GIRK (G protein-gated inwardly rectifying potassium channel) thallium flux, FluoZin2; at 10 µM; stronger effect = higher value; submaximal glutamate (EC20) added with thallium
# Sequence of UniProt P70579 (P70579 whole entry, looked up): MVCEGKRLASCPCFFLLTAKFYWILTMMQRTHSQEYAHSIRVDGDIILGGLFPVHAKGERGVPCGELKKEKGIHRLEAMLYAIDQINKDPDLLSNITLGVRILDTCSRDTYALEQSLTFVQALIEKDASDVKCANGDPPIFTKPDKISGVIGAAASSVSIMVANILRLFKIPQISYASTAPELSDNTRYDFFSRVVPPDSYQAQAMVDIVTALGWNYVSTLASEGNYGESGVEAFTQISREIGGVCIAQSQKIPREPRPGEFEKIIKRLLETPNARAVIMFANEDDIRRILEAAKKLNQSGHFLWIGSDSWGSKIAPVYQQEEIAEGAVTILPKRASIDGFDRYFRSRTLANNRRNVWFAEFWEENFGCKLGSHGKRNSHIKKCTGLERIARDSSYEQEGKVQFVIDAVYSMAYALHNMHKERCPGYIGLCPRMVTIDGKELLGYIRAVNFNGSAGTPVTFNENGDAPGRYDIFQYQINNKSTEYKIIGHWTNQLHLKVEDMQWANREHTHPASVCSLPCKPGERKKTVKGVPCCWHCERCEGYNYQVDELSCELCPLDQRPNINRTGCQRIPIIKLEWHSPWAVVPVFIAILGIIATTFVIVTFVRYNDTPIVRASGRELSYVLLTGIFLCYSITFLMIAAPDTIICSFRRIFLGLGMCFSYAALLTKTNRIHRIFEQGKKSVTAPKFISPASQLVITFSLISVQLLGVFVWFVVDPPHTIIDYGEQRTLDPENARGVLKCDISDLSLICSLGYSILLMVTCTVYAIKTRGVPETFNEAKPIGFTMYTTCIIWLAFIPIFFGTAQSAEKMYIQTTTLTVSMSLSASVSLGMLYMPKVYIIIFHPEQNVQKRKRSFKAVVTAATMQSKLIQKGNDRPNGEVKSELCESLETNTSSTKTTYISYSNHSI
row,Compound,z-score
1,CCCc1nnc(NC(=O)NCCN2C(=O)C3C4C=CC(C4)C3C2=O)s1 (configuration not stated),0.0137
2,O=C(Nc1ccccc1)Nc1ccc(Br)cc1F,-0.264
3,O=[N+]([O-])c1cc([N+](=O)[O-])c(N2CCOCC2)cc1NCc1ccccc1,-1.61
4,Oc1cccc2ccc[n+](CC(O)Cn3c4ccccc4c4ccccc43)c12 (configuration not stated),-0.428
5,NC(=O)c1cc(Br)cc2c3c([nH]c12)CCCC3,0.259
6,COc1ccc(-c2[nH]c(-c3ccc4c(c3)OCO4)nc2-c2ccccc2)cc1,-0.157
7,C=CCC(C=C)S(=O)(=O)c1ccc(C)cc1 (configuration not stated),-0.553
8,O=C(c1ccc2c(c1)N(Cc1ccccc1)CCS2)N1CCCCC1,0.565
9,CC(C)(C)c1nc2scc(-c3ccc(Cl)cc3)c2c(=O)o1,0.0761
10,COCCCN1CN(Cc2ccccc2)CNC1=S,0.294
11,COC(=O)Cc1cc(=O)oc2c(C)c(O)ccc12,0.017
12,Cc1ccc(C(=O)O)cc1S(=O)(=O)N1CCC(C(=O)O)CC1,0.299
13,O=C(O)COc1ccc(NC(=O)c2cccs2)cc1,0.137
14,CCSc1nnc(NC(=O)Cc2cccc(OC)c2)s1,-0.365
15,Cc1[nH]c(=O)c(C#N)cc1-c1ccccc1,-0.00669
16,Nn1c(SCC(=O)Nc2ccc(F)cc2F)nnc1-c1cccnc1,-0.228
17,O=C1NCCN1Cc1ccccc1,-0.0214
18,CC(C)N(Cc1nc(-c2ccccc2)no1)C(=O)c1ccc2c(c1)OCO2,-0.865
19,O=C(c1ccccc1NS(=O)(=O)c1ccc(Br)s1)N1CCCC1,0.271
20,C=C(C)Cn1c(-c2ccccc2)nc2ccccc21,1.06
21,NS(=O)(=O)c1cccc(NC(=O)COC(=O)CCSc2ccccc2)c1,0.0368
22,COc1cc(-c2nnc(SCC(=O)N3c4ccccc4Sc4ccccc43)o2)cc(OC)c1OC,-0.176
23,NS(=O)(=O)c1ccc(NC(=S)N2CCN(c3ccccc3)CC2)cc1,0.13
24,CC(C)NS(=O)(=O)c1ccc(OCC(=O)N(C)Cc2ccccc2)cc1,-0.378

row,Compound,z-score
1,CN1CC=C2C(C#N)=C(N)C(C#N)(C#N)[C@H](c3cccc(Cl)c3)C2C1 (some centres not stated),active: -3.11
2,CCCCCCN1C=CC(=C/C=C(\C#N)C(=O)OCC)C=C1,-0.21
3,O=S1(=O)C[C@H]2NC(=S)N(c3ccccc3)[C@H]2C1,-0.132
4,C=CCc1c(C)nc(SC)nc1Nc1ccccc1,-0.563
5,Cc1c(O)nc(SC2CC(=O)N(c3ccccc3)C2=O)[nH]c1=O (configuration not stated),0.139
6,CC1CC(C)CN(c2nc3c(c(=O)[nH]c(=O)n3C)n2CCCSc2nc3ccccc3s2)C1 (configuration not stated),-0.467
7,O=C(NC(=O)c1ccccc1)OCC1CCCN2CCCCC12 (configuration not stated),-0.0938
8,COc1ccc(-c2cn[nH]c2N)cc1OC,0.0393
9,O=C(CN1CCN(S(=O)(=O)c2ccc(F)cc2)CC1)Nc1ccc(Cl)c(C(F)(F)F)c1,-0.132
10,COc1ccc(C(c2c(C)[nH]n(C(N)=S)c2=O)C(C#N)C#N)cc1 (configuration not stated),-0.815
11,CNc1nc(-c2c[nH]c3ccccc23)cs1,-0.116
12,Cc1c(N2C(=O)C(=O)/C(=C(/O)c3ccccc3)C2c2ccc(F)cc2)c(=O)n(-c2ccccc2)n1C (configuration not stated),-0.483
13,COCCn1ccc(O)c(Cc2ccccc2)c1=O,-0.189
14,Cc1cccc(NC(=S)Nc2c(C)n(C)n(-c3ccccc3)c2=O)c1C,-0.253
15,Cn1c(NC(=O)/C=C/c2ccco2)cc(=O)n(C)c1=O,-0.0524
16,CCCNC(=O)c1c(N)n(-c2ccc(S(N)(=O)=O)cc2)c2nc3ccccc3nc12,-0.0492
17,Cc1ccc(Nc2nc(CSc3nnnn3-c3ccccc3)cc(=O)[nH]2)cc1,0.664
18,S=c1[nH]nc(-c2ccccn2)n1/N=C/c1ccc(Br)s1,active: 5.6
19,Cn1nnnc1SCC(=O)Nc1ccccc1C(=O)NCc1ccccc1,0.00964
20,O=C1c2ccccc2C(=O)N1CCSc1nncs1,0.647
21,O=c1cc(-c2ccccc2)nc(SCc2ccccc2)[nH]1,-0.134
22,COc1cccc(NC(=O)CN2C(=O)C(c3ccc(C)cc3)=NC23CCCCCC3)c1,0.565
23,COc1cccc2cc(S(=O)(=O)c3ccccc3)c(=Nc3ccc4c(c3)OCCO4)oc12,-0.273
24,COc1ccc(CN2CCN(S(=O)(=O)c3ccc(C)cc3)CC2)cc1Br,-0.163

row,Compound,z-score
1,O=C(CSc1nnc(-c2ccc(F)cc2)o1)Nc1ccccc1N1CCOCC1,-0.906
2,CCc1ccccc1NC(=O)CSc1ccsc1[N+](=O)[O-],-0.322
3,Cc1ccn(-c2ccc([N+](=O)[O-])cc2)n1,0.0346
4,COc1ccc(C2c3c(ccc4ccccc34)Oc3ncn4nc(Cc5ccccc5)nc4c32)cc1OC (configuration not stated),-0.178
5,COc1ccc(OCC(=O)Nc2ccc(N3CCOCC3)cc2)cc1,0.2
6,CCCC(=O)Nc1sc2c(c1C#N)CC(C)(C)NC2(C)C,-0.129
7,CC(=O)c1ccc(OCC(O)CN2CCN(Cc3ccc4c(c3)OCO4)CC2)cc1 (configuration not stated),0.302
8,CC1(C)Cc2ccccc2-c2nnc(SCC(=O)N3CCN(c4ccccc4)CC3)n21,active: 3.2
9,CC(C)c1ccc(CNCc2ccccc2)cc1,0.0806
10,CCOCCn1cnc2sc(C(=O)Nc3nc(C)c(C(=O)OCC)s3)c(C)c2c1=O,-0.151
11,O=c1cnc2ccccc2n1CC1CCCCC1,-0.327
12,Cc1nc2ccccc2c(=O)n1NC(=O)/C=C/c1ccccc1Cl,-0.0204
13,Cc1nc2nc(CSc3nc4ccccc4s3)cc(=O)n2[nH]1,-1.02
14,CCCCCNCc1cccn1C,-0.0238
15,Cc1ccc(-c2nn(-c3cc(Cl)ccc3[N+](=O)[O-])c(=O)c3ccccc23)cc1C,0.0569
16,CCN1C(=O)/C(=C\N(C)C)c2ccccc21,0.713
17,CCn1c(Cc2ccccc2)nnc1SCC(=O)Nc1nc(C)cs1,-0.0666
18,COC(=O)CC1C(=O)NCCN1C(=O)c1ccccc1 (configuration not stated),0.315
19,COc1ccc(/C(O)=C2/C(=O)C(=O)N(CC3CCCO3)C2c2ccc(OC)c(OC)c2)cc1 (configuration not stated),-0.147
20,O=C1CN(C(=O)COC(=O)c2oc3ccccc3c2COc2ccccc2)c2ccccc2N1,-0.462
21,Cc1ccc(-n2c(N)c(C#N)c(-c3ccccc3)c(C#N)c2=O)cc1,-0.271
22,C/C(=N\Nc1nc2c(s1)CCCC2)c1ccc(Cl)cc1,-0.144
23,CC(C)c1ccc(N(CC(=O)NCCSC(C)(C)C)S(C)(=O)=O)cc1,0.114
24,CCCc1nn(C)c2c1C(c1ccncc1)C(C#N)=C(N)O2 (configuration not stated),-0.13
